# Data reported in the supplement of paper PMC12217912.
# Some of the results follow. Sequences were assembled here from the parent chain. Values near 0.05 are background.
# B1: TEV protease; numbered along this chain (parent)
# chain: MGESLFKGPRDYNPISSSICHLTNESDGHTTSLYGIGFGPFIITNKHLFRRNNGTLVVQSLHGVFKVKDTTTLQQHLVDGRDMIIIRMPKDFPPFPQKLKFREPQREERICLVTTNFQTKSMSSMVSDTSCTFPSGDGIFWKHWIQTKDGQCGSPLVSTRDGFIVGIHSASNFTNTNNYFTSVPKNFMELLTNQEAQQWVSGWRLNADSVLWGGHKVFMVKPEEPFQPVKEATQL
# Variants of: B1
# Assay: raw area under fraction-flipped curve 0-4 h after induction (AUC4h, not background-subtracted), DNA-recorder readout of cleavage of the substrate (dimensionless); higher = more cleavage of the substrate by the protease variant
# Conditions: temperature: 34 °C; time window: 0-4 h after rhamnose induction
# Experimental: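 In vivo DNA recorder in E. coli TOP10(DE3) ΔrhaA at 34 °C. Each TEVp single-site mutant (parent TEVp 0) is paired with a single-site variant of the 7-mer TEVs (canonical ENLYFQ|S). The substrate sits between flexible linkers in a Bxb1-sfGFP-TEVs-SsrA fusion, so cleavage stabilises Bxb1 and speeds flipping of a recombination array, read by NGS. The value is the raw area under the fraction-flipped curve over 0-4 h after rhamnose induction (AUC4h), with ≥20 reads per time point. It is not background-subtracted; inactive controls average about 0.047.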
# 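Further: Bxb1 expression induced with 0.2% (w/v) L-rhamnose at OD600 near 0.5, cultures sampled hourly, flipped fraction per protease–substrate barcode pair counted by paired-end Illumina sequencing.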
Variant,area with substrate ENLAFQS,area with substrate ENLCFQS,area with substrate ENLDFQS,area with substrate ENLGFQS,area with substrate ENLLFQS,area with substrate ENLNFQS,area with substrate ENLQFQS,area with substrate ENLRFQS,area with substrate ENLSFQS,area with substrate ENLTFQS,area with substrate ENLEFQS,area with substrate ENLFFQS,area with substrate ENLHFQS,area with substrate ENLKFQS,area with substrate ENLMFQS,area with substrate ENLWFQS,area with substrate ENLPFQS,area with substrate ENLIFQS,area with substrate ENLVFQS
T70H,0.0661,0.0813,0.0675,0.064,0.054,0.066,0.056,0.0711,0.0517,0.0661,,,,,,,,,
T70Q,0.0603,,0.0593,,0.0542,0.0664,,0.0572,0.0395,,0.0597,0.0737,0.0578,0.0663,0.0704,0.0647,,,
Q74C,0.0392,0.0655,0.0677,,0.0505,0.0639,0.0718,0.0408,0.0506,,,0.0737,,0.0689,,0.0694,,,
Q74R,0.0064,,,0.0581,0.0803,0.0556,0.0728,,,,,0.0687,0.071,0.0715,0.0859,,0.0553,,
L77E,0.067,0.0644,0.0635,0.0641,0.0577,0.0602,0.0579,,0.0569,0.0839,,0.0595,0.0625,0.0696,0.0333,,0.0674,0.0641,0.0527
L77W,0.0563,0.062,0.057,,0.0552,0.0551,0.0491,0.0606,,,0.0722,0.0776,,0.0602,,0.0321,0.0597,,
D79A,0.0795,,0.0746,,0.0763,,,0.0703,,,,0.088,0.0709,0.0853,,0.0636,0.0701,,
R81F,0.0611,0.0647,0.0648,0.0639,0.0685,0.0671,,,0.0577,,0.0644,0.0596,0.0716,0.0635,0.0647,0.0672,0.042,0.0403,0.0633
R81K,0.0754,,0.063,,0.0731,0.0714,,,0.058,,0.0589,0.0658,0.0734,,,,0.0352,0.0756,0.056
R81M,0.0758,,0.0662,,0.0625,0.0744,,,,,,0.0777,0.0707,0.0722,,,0.067,,0.0575
M83C,0.0674,,0.0635,0.074,,0.0658,,0.0613,0.0701,0.0764,,,0.0672,0.0402,,0.0714,0.0794,,
M83G,0.0512,0.0618,0.0526,0.0445,,0.0623,,0.0464,0.0619,0.076,0.0274,0.0543,0.0523,0.0665,0.0589,,0.0513,0.053,
M83K,0.0586,0.0513,0.0397,0.07,,0.0493,0.0289,0.0666,,,,0.0519,0.0732,,,,0.0448,,
I86D,0.0417,,0.0362,,,,0.0347,0.0364,,,0.0517,0.045,0.0345,0.0288,0.0315,0.0326,0.0333,,0.0521
I86W,0.063,0.0612,0.0524,0.0614,0.0596,0.099,0.0634,,0.0423,,,0.0719,0.049,0.0687,0.0651,,0.0494,0.0686,0.0656
D91W,0.0578,,0.066,,,0.0682,0.0554,0.0739,0.0694,,,,,0.0907,,,0.0517,0.0767,
P93A,0.0785,,0.0857,0.0745,0.0746,0.0693,0.073,,0.0615,0.0742,,0.0778,,0.06,,0.0676,,,
K98G,0.0711,,0.0693,0.0657,,0.0698,,0.0813,0.0575,,0.0685,0.106,0.0791,0.0746,,0.0646,0.0677,0.0973,
K98T,0.0624,0.0846,0.0492,,0.0807,0.0617,0.0874,0.0832,0.0539,,0.0561,0.0944,0.079,0.0805,0.0671,0.0677,0.0619,,
L99P,0.078,0.0727,0.0603,,0.116,0.0599,0.0657,,0.0653,0.0725,,0.0814,0.0768,0.0675,,0.0631,0.0491,,
K100H,0.0634,,0.0563,0.0589,0.0674,0.0701,,0.0667,0.0507,,0.0697,0.1,0.0778,0.0705,0.0919,0.0616,0.0606,,0.0815
F101K,0.0459,,0.0591,,,0.0617,,,0.0501,,,0.0887,,,0.07,,,,
E103H,0.0519,,0.0794,,,0.0564,0.0791,0.0686,0.0574,,0.0537,0.0834,,0.0627,0.0606,,0.054,0.066,0.0771
E103V,0.0849,0.065,0.0608,,0.0638,0.0701,0.0691,0.0683,0.0729,,0.0725,0.0834,0.0693,0.0729,,0.0665,0.0562,,0.056
Q105Y,0.0712,,0.0602,0.0683,,0.0616,,0.0795,0.0666,,,0.0885,0.0687,0.0792,,0.0517,0.0623,,
R106T,0.0462,,0.073,0.0699,0.0906,0.0657,0.0669,0.0895,0.0585,,0.0543,0.0805,,0.0783,0.0841,0.068,0.0938,0.0736,
E107G,0.0653,,0.0642,0.0785,,,0.0544,,0.0674,0.0619,0.0683,0.077,0.0966,0.077,,0.068,,,
E107H,0.0592,,,,,0.0641,,,0.0616,,,0.0801,0.0838,,,,0.0608,,
